ChEMBL document CHEMBL1201862, “PubChem BioAssay data set” (2004)
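Protocol summary: plate cells (96-well), add compound at 5 concentrations, incubate 48 h, interpolate endpoints linearly. GI50: concentration for 50% inhibition of growth.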 The source made the active and inactive calls. Rule as the data show it: active = GI50 up to about 1.1 µM and inactive = higher.

Test system: NCI-H322M
Test: NCI-60 cell line screen, 48 h

How did the GI50 turn out when `O=C(O)c1cn2c3c(cc(N4CCN(CCO)CC4)cc3c1=O)SCC2` was run?
Its GI50 is inactive: 74 µM.

With `O=C1CC(c2c[nH]c3ccccc23)C(=O)N1c1ccccc1` (stereo not given) as the compound, how does the GI50 read?
Its GI50 is inactive: > 100 µM.

`CC[C@@H](O)C[C@H]1CCC[C@@]2(C[C@@H]3OC(=O)/C=C/[C@@](C)(O)[C@@H](O)[C@H](C)[C@@H](O)[C@H](OC4CCC(N(C)C)C(C)O4)[C@@H](O)[C@](C)(O)CCCCC/C=C/[C@@H]4CC(C)(C)O[C@@]4(O)C[C@H](O2)[C@H]3C)O1` (stereo not given in full) was tested. Which GI50 did it give?
Its GI50 is inactive: 9.59 µM.

`COc1cc2c(c(OC)c1OC)-c1ccc(SC)c(=O)cc1C(NC(=O)c1ccccc1)CC2` (stereo not given) was tested. Which GI50 did it give?
Its GI50 is active: < 0.01 µM.

Which GI50 does the source give for `CN(C)CC1CCC/C(=C\c2ccc(OC(=O)c3ccc(Cl)cc3)cc2)C1=O` (stereo not given) here?
Its GI50 is inactive: 5.07 µM.

For `NC(=O)C1CCCN1Cc1ccc2c(c1)OCO2` (stereo not given), which GI50 is on record?
Its GI50 is inactive: > 100 µM.

Which GI50 does the source give for `COc1ccccc1NC(=S)Nc1cc(C)ccn1` here?
Its GI50 is inactive: > 100 µM.

How did the GI50 turn out when `COC(=O)CCC(C)[C@H]1CCC2C3C(C[C@H](OC(C)=O)[C@@]21C)[C@@]1(C)CCC2(C[C@H]1C[C@H]3OC(C)=O)OOC1(CCCCC1)OO2` (stereo not given in full) was run?
The GI50 was inactive: > 100 µM.

For `COc1ccc([C@H]2CC(=O)NCCCCN2)cc1`, which GI50 is on record?
Its GI50 is inactive: > 100 µM.

Which GI50 does the source give for `CCOC(=O)c1nc(-c2ccccc2)oc1OCC` here?
Its GI50 is inactive: > 100 µM.

With `O=C1c2ccccc2C(=O)c2c(NC(=O)C(Cl)CCl)cccc21` (stereo not given) as the compound, how does the GI50 read?
The GI50 was inactive: 17.5 µM.

For `COc1ccccc1OCC(=N/NC(=O)c1ccncc1)/N=C/c1ccncc1`, which GI50 is on record?
Its GI50 is inactive: > 100 µM.

For `O=c1[nH]c(=O)n(C2CC(O)C(CO)O2)cc1OCCc1ccccc1` (stereo not given), which GI50 is on record?
Its GI50 is inactive: > 100 µM.

`CC(C)(C)OC(=O)NC(Cc1ccc(OCc2ccccc2)cc1)C(=O)NC(COCc1ccccc1)C(=O)Oc1c(Cl)c(Cl)c(Cl)c(Cl)c1Cl` (stereo not given) was tested. Which GI50 did it give?
The GI50 was inactive: 25 µM.

Which GI50 does the source give for `Cc1ccccc1/N=N/c1cc(C)c(/N=N/c2c(O)ccc3ccccc23)cc1C` here?
The GI50 was inactive: > 100 µM.

For `C#CCNC(=O)CCC(N)C(=O)O` (stereo not given), which GI50 is on record?
Its GI50 is inactive: > 100 µM.

`CC(C)OCC1CC(CC(=O)Nc2nncs2)C(=O)O1` (stereo not given) was tested. Which GI50 did it give?
The GI50 was inactive: > 100 µM.

With `Cc1c2ccccc2c(C)n2c1nc1ccccc12` as the compound, how does the GI50 read?
Its GI50 is inactive: 1.95 µM.

With `CCOC(=O)N1CCc2cc(OC)c(OC)cc2/C1=C\c1ccc(OC)c(OC)c1` as the compound, how does the GI50 read?
The GI50 was inactive: 42.3 µM.

For `O=C(NCCOC(=O)CCCCCCCCC(=O)OCCNC(=O)NC(=O)c1cn(Cc2ccccc2)c(=O)[nH]c1=O)NC(=O)c1cn(Cc2ccccc2)c(=O)[nH]c1=O`, which GI50 is on record?
Its GI50 is inactive: > 100 µM.

Which GI50 does the source give for `N=C(N)NS(=O)(=O)c1ccc(N/N=C2/CCOC2=O)cc1` here?
The GI50 was inactive: > 100 µM.

Which GI50 does the source give for `NC(C(=O)O)C(O)c1c[nH]cn1` (stereo not given) here?
The GI50 was inactive: > 100 µM.

With `CCOC(=O)/C=C(\C(=O)OCC)n1cc(C)c(=O)n(Cc2cnnn2COCCOC(C)=O)c1=O` as the compound, how does the GI50 read?
The GI50 was inactive: 27.9 µM.

How did the GI50 turn out when `COC(=O)C(Cc1ccccc1)NC(=O)CNC(=O)CSc1nnc(COc2ccc(Cl)cc2)n1-c1ccccc1` (stereo not given) was run?
The GI50 was inactive: 18.4 µM.

Which GI50 does the source give for `N#Cc1nnc2c3c(-c4ccc(Cl)cc4)c(C#N)c(O)nc3nn2c1N` here?
Its GI50 is inactive: 11.8 µM.

How did the GI50 turn out when `CCOC1NC(=O)c2ccccc21` (stereo not given) was run?
The GI50 was inactive: > 100 µM.

How did the GI50 turn out when `NNc1cnn(-c2ccccc2)c(=O)c1Cl` was run?
The GI50 was inactive: > 100 µM.

Which GI50 does the source give for `NCCC(=O)N[C@H](Cc1cc(O)c(O)c(SCC(NC(=O)CC[C@H](N)C(=O)O)C(=O)NCC(=O)O)c1)C(=O)O` (stereo not given in full) here?
The GI50 was inactive: > 50 µM.

`O=[N+]([O-])c1cc(F)ccc1Sc1ccccc1` was tested. Which GI50 did it give?
The GI50 was inactive: > 10 µM.

`Nc1ncnc2c1nnn2C1CCC(CP(=O)(O)O)C1` (stereo not given) was tested. Which GI50 did it give?
The GI50 was inactive: > 100 µM.

How did the GI50 turn out when `C/C(CCn1[nH]c(=O)ccc1=O)=N\OCCCc1ccccc1` was run?
The GI50 was inactive: > 100 µM.

Which GI50 does the source give for `Cc1ccc(-c2c(C#N)c(-c3ccc(C)cc3)n(NS(=O)(=O)c3ccccc3)c(=O)c2C#N)cc1` here?
Its GI50 is inactive: > 100 µM.

Which GI50 does the source give for `COc1cc([C@H]2OC[C@H]3[C@@H]2CO[C@@H]3c2cc(OC)c3c(c2)OCO3)cc(OC)c1OC` here?
The GI50 was inactive: > 100 µM.

Which GI50 does the source give for `NCc1ccc(-c2ccc(CN)s2)s1` here?
The GI50 was inactive: > 100 µM.

Which GI50 does the source give for `CC1CCN(CCC(=O)CC(c2ccccc2)c2c(O)c3ccccc3oc2=O)CC1` (stereo not given) here?
The GI50 was inactive: > 100 µM.

Which GI50 does the source give for `CCOC(=O)Nc1nn(C)/c(=N/Cc2ccccc2)s1` here?
Its GI50 is inactive: > 100 µM.

`CCOP(=O)(OCC)/C(C#N)=C/c1cc(O)ccc1O` was tested. Which GI50 did it give?
The GI50 was inactive: > 100 µM.

For `C=CCOC(=O)CC[N+]1=CCC(c2ccccc2)(c2ccccc2)O1`, which GI50 is on record?
The GI50 was inactive: > 100 µM.

For `COC(CC1(OC)OC(=O)C=C1N)OC` (stereo not given), which GI50 is on record?
Its GI50 is inactive: > 100 µM.

How did the GI50 turn out when `c1ccc(CN2CCCN3CCN(CCCN(Cc4ccccc4)CC3)CC2)cc1` was run?
The GI50 was inactive: 81.5 µM.

With `NNC(N)Nc1ccccc1` (stereo not given) as the compound, how does the GI50 read?
The GI50 was inactive: > 100 µM.

`CC1COS(=O)N1c1ccccc1` (stereo not given) was tested. Which GI50 did it give?
The GI50 was inactive: > 100 µM.

For `Oc1cc2c(cc1O)-c1[nH]ncc1CC2`, which GI50 is on record?
Its GI50 is inactive: 38.9 µM.

With `S=C1c2cc(Cl)ccc2N=C(NC2CCCC2)C2CSCN12` (stereo not given) as the compound, how does the GI50 read?
The GI50 was inactive: > 100 µM.

Which GI50 does the source give for `CC(C)(C)OC(=O)N1[C@@H]2Cc3ccc(N)cc3[C@@]1(C)c1ccccc12` here?
Its GI50 is inactive: 53.2 µM.

With `O=C(CCc1ccccc1)On1c(-c2ccccc2)nc2ccccc2c1=S` as the compound, how does the GI50 read?
The GI50 was inactive: 3.28 µM.

With `CC(C)(C)COC(=O)C(C)(C)NC(=O)C(CC(=O)OCc1ccccc1)NC(=O)OCc1ccccc1` (stereo not given) as the compound, how does the GI50 read?
The GI50 was inactive: > 100 µM.

Which GI50 does the source give for `CC(=O)n1c2c(c(=O)n1-c1ccccc1)[S+]([O-])CCC2` (stereo not given) here?
Its GI50 is inactive: > 65.3 µM.

For `Cc1ccc(S(=O)(=O)OCCN(CCOS(=O)(=O)c2ccc(C)cc2)c2ccc(C=O)cc2)cc1`, which GI50 is on record?
The GI50 was inactive: 22.7 µM.

`O=C(NCCCN(CCCCN(CCCNC(=O)C(F)(F)F)Cc1ccc2ccccc2c1)Cc1ccc2ccccc2c1)C(F)(F)F` was tested. Which GI50 did it give?
The GI50 was inactive: 11.1 µM.

With `COP(=O)(OC)C(NC(=O)C(F)(F)F)(c1ccccc1)C(F)(F)F` (stereo not given) as the compound, how does the GI50 read?
The GI50 was inactive: > 100 µM.

Which GI50 does the source give for `CCCCN(CCCC)C(=O)C(=O)CC(=O)/C=C/c1ccccc1` here?
The GI50 was inactive: > 100 µM.

`O=c1cc(NNc2cccc(F)c2)[nH]c(=S)[nH]1` was tested. Which GI50 did it give?
The GI50 was inactive: > 100 µM.

`CC(=O)OC[C@@]1(C)[C@@H]2[C@@H]3[C@@]4(CO[C@]3(C)C(=O)[C@@]3(OC(C)=O)C[C@H](C)[C@H](OC(C)=O)[C@@H]3[C@H]4OC(C)=O)[C@H](OC(=O)c3ccccc3)C[C@@H]21` was tested. Which GI50 did it give?
The GI50 was inactive: > 100 µM.

For `O=C1c2ccccc2C(=O)N1CCCCNOCCCN1C(=O)c2ccccc2C1=O`, which GI50 is on record?
The GI50 was inactive: > 100 µM.

Which GI50 does the source give for `O=C(O)C1CCCCN1CCc1c[nH]c2ccccc12` (stereo not given) here?
Its GI50 is inactive: > 100 µM.

With `Nc1sccc1S(=O)(=O)c1ccsc1N` as the compound, how does the GI50 read?
Its GI50 is inactive: > 100 µM.

How did the GI50 turn out when `O=C1c2c(ccc3c2CCCC3)CC12Cc1ccc3c(c1C2=O)CCCC3` was run?
The GI50 was inactive: > 100 µM.

Which GI50 does the source give for `O=C1CC(C(OCc2ccccc2)C(OCc2ccccc2)C(COCc2ccccc2)OCc2ccccc2)CC(=O)N1` (stereo not given) here?
The GI50 was inactive: > 75 µM.

With `COC(=O)C12C(=O)O[C@H](C)C1(O)C(C)C(=O)N2C` (stereo not given in full) as the compound, how does the GI50 read?
Its GI50 is inactive: > 100 µM.

How did the GI50 turn out when `Oc1c2c(nc3cc4c(cc13)OCO4)-c1ccccc1CC2` was run?
Its GI50 is inactive: > 100 µM.

How did the GI50 turn out when `CC(=O)C(CN1C(=O)c2ccccc2C1=O)C(C)=O` was run?
The GI50 was inactive: > 100 µM.

How did the GI50 turn out when `COc1cc2c(cc1OC)[C@H]1C(=O)c3cc4c(cc3[C@H]1N(C)C2=O)OCO4` was run?
Its GI50 is inactive: > 35 µM.

Which GI50 does the source give for `N#Cc1nc2ccccc2nc1N1CCN(c2ccc([N+](=O)[O-])cc2)CC1` here?
Its GI50 is inactive: > 100 µM.

How did the GI50 turn out when `COc1ccc2c(c1)/C(=C\c1c(Cl)[nH]c3cc(C)c(OC)cc13)C(=O)N2` was run?
Its GI50 is inactive: 2.65 µM.
